The list shows a part of the results. Repeats are few or missing, and single values can be far off.
Each molecule was assayed on COLO800 (assay: cell count relative to DMSO control; melanoma cells; higher = more viable cells). Conditions: library dose: low library concentration; 72 h.
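Also: cell number obtained by counting DAPI-stained nuclei in high-throughput microscope images with image analysis software, screen run in 1,536-well plates.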

Compound	cell count
CC[C@]1(O)C[C@H]2CN(CCc3c([nH]c4ccccc34)[C@@](C(=O)OC)(c3cc4c(cc3OC)N(C=O)[C@H]3[C@@](O)(C(=O)OC)[C@H](OC(C)=O)[C@]5(CC)C=CCN6CC[C@]43[C@@H]65)C2)C1 [vincristine] + Cn1c(=O)n(-c2ccc(C(C)(C)C#N)cc2)c2c3cc(-c4cnc5ccccc5c4)ccc3ncc21 [NVP-BEZ235] (first compound 0.0001 µM, partner dose 0.004 µM)	130%
CC[C@]1(O)C[C@H]2CN(CCc3c([nH]c4ccccc34)[C@@](C(=O)OC)(c3cc4c(cc3OC)N(C=O)[C@H]3[C@@](O)(C(=O)OC)[C@H](OC(C)=O)[C@]5(CC)C=CCN6CC[C@]43[C@@H]65)C2)C1 [vincristine] + CO[C@H]1C[C@@H]2CC[C@@H](C)[C@@](O)(O2)C(=O)C(=O)N2CCCC[C@H]2C(=O)O[C@H]([C@H](C)C[C@@H]2CC[C@@H](OCCO)[C@H](OC)C2)CC(=O)[C@H](C)/C=C(\C)[C@@H](O)[C@@H](OC)C(=O)[C@H](C)C[C@H](C)/C=C/C=C/C=C/1C [everolimus] (first compound 0.0001 µM, partner dose 0.02 µM)	81.2%
N#CC[C@H](C1CCCC1)n1cc(-c2ncnc3[nH]ccc23)cn1 [ruxolitinib] + CC[C@]1(O)C[C@H]2CN(CCc3c([nH]c4ccccc34)[C@@](C(=O)OC)(c3cc4c(cc3OC)N(C=O)[C@H]3[C@@](O)(C(=O)OC)[C@H](OC(C)=O)[C@]5(CC)C=CCN6CC[C@]43[C@@H]65)C2)C1 [vincristine] (first compound 1 µM, partner dose 0.0001 µM)	158%
N#CC[C@H](C1CCCC1)n1cc(-c2ncnc3[nH]ccc23)cn1 [ruxolitinib] + O=C(Nc1ccccc1)c1cc([N+](=O)[O-])ccc1Cl [GW9662] (first compound 1 µM, partner dose 2 µM)	126%
N#CC[C@H](C1CCCC1)n1cc(-c2ncnc3[nH]ccc23)cn1 [ruxolitinib] + CC(=O)O[C@@]12CO[C@@H]1C[C@H](O)[C@@]1(C)C(=O)[C@H](O)C3=C(C)[C@@H](OC(=O)[C@H](O)[C@@H](NC(=O)OC(C)(C)C)c4ccccc4)C[C@@](O)([C@@H](OC(=O)c4ccccc4)[C@H]21)C3(C)C [Docetaxel] (first compound 1 µM, partner dose 0.0001 µM)	40.9%
N#CC[C@H](C1CCCC1)n1cc(-c2ncnc3[nH]ccc23)cn1 [ruxolitinib] + COc1ccc(Cl)c(Nc2nc3ccccc3nc2NS(=O)(=O)c2cccc(NC(=O)C(C)(C)N)c2)c1 [XL147] (first compound 1 µM, partner dose 0.8 µM)	104%
N#CC[C@H](C1CCCC1)n1cc(-c2ncnc3[nH]ccc23)cn1 [ruxolitinib] + Cc1cn(-c2cc(NC(=O)c3ccc(C)c(Nc4nccc(-c5cccnc5)n4)c3)cc(C(F)(F)F)c2)cn1 [nilotinib] (first compound 1 µM, partner dose 0.2 µM)	138%
CC[C@]1(O)C[C@H]2CN(CCc3c([nH]c4ccccc34)[C@@](C(=O)OC)(c3cc4c(cc3OC)N(C=O)[C@H]3[C@@](O)(C(=O)OC)[C@H](OC(C)=O)[C@]5(CC)C=CCN6CC[C@]43[C@@H]65)C2)C1 [vincristine] + C[C@@H](Oc1cc(-c2cnn(C3CCNCC3)c2)cnc1N)c1c(Cl)ccc(F)c1Cl [Crizotinib] (first compound 0.0001 µM, partner dose 0.2 µM)	93.9%
N#CC[C@H](C1CCCC1)n1cc(-c2ncnc3[nH]ccc23)cn1 [ruxolitinib] + COc1ccc(C2=N[C@@H](c3ccc(Cl)cc3)[C@@H](c3ccc(Cl)cc3)N2C(=O)N2CCNC(=O)C2)c(OC(C)C)c1 [Nutlin-3] (first compound 1 µM, partner dose 0.1 µM)	88.8%
N#CC[C@H](C1CCCC1)n1cc(-c2ncnc3[nH]ccc23)cn1 [ruxolitinib] + Cn1sc(=O)n(Cc2ccccc2)c1=O [TDZD-8] (first compound 1 µM, partner dose 0.4 µM)	98.7%
CC[C@]1(O)C[C@H]2CN(CCc3c([nH]c4ccccc34)[C@@](C(=O)OC)(c3cc4c(cc3OC)N(C=O)[C@H]3[C@@](O)(C(=O)OC)[C@H](OC(C)=O)[C@]5(CC)C=CCN6CC[C@]43[C@@H]65)C2)C1 [vincristine] + O=C(O)[C@@H]1[O][Sb](=[O])([O][Sb]2(=[O])[O][C@H]([C@H](O)CO)[C@H](O)[C@H](C(=O)O)[O]2)[O][C@H]([C@H](O)CO)[C@@H]1O [stibogluconate] (first compound 0.0001 µM, partner dose 2 µM)	112%

From the supplement of paper PMC4604168 (melanoma cell lines)
